Reference: the supplement of paper PMC12230231
± gives the standard deviation of the averaged measurements. Restriction of a single-cycle SIVsab GFP reporter by TRIM5α v1-loop variants in CRFK cells. Human variants: read share among cells still uninfected after two challenges over input, higher = gained restriction. Rhesus variants: share among infected cells over input, higher = lost restriction. Reporter dose not given per row. No active / inactive call per row; the paper calls a change when both replicates lie above its controls (mean + 2 SD of stop or wild-type variants, or the top frameshift score). Residues outside the varied loop are taken from Swiss-Prot. The paper reads the human single-substitution scores as noise; they and the rhesus combinations repeat poorly (rank correlation 0.3 to 0.4), indel scores repeat only for the top variants, rhesus substitutions well (0.9).

Test system: SIVsab (simian immunodeficiency virus of sabaeus monkeys), single-cycle GFP reporter, in CRFK cells
Assay: enrichment among uninfected cells over input (fold); higher = stronger restriction
Procedure: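 Pools of CRFK cells expressing variants of the TRIM5α v1 loop were challenged with the single-cycle reporter, sorted by GFP and sequenced; mean of two replicates.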

[1] = library: insertions and deletions
[2] = library: human / rhesus combinations

Sequence	enrichment [1]	enrichment [2]
MASGILVNVKEEVTCPICLELLTQPLSLDCGHSFCQACLTANHKKSMLDKGESSCPVCRISYQPENIRPNRHVANIVEKLREVKLSPEGQKVDHCARHGEKLLLFCQEDGKVICWLCERSQEHRGHHTFLTEEVAREYQVKLQAALEMLRQKQQEAEELEADIREEKASWKTQIQYDKTNVLADFEQLRDILDWEESNELQNLEKEEEDILKSLTNSETEMVQQTQSLRELISDLEHRLQGSVMELLQGVDGVIKRTENVTLKKPETFPKNQRRVFRAPDLKGMLEVFRELTDVRRYWVDVTVAPNNISCAVISEDKRQVSSPKPQIIYGAYGARGTRYQTFVNFNYCTGILGSQSITSGKHYWEVDVSKKTAWILGVCAGFQPDAMCNIEKNENYQPKYGYWVIGLEEGVKCSAFQDSSFHTPSVPFIVPLSVIICPDRVGVFLDYEACTVSFFNITNHGFLIYKFSHCSFSQPVFPYLNPRKCGVPMTLCSPSS [human TRIM5α, 3-codon duplication at 329]	0.458 ± 0.18	
MASGILVNVKEEVTCPICLELLTQPLSLDCGHSFCQACLTANHKKSMLDKGESSCPVCRISYQPENIRPNRHVANIVEKLREVKLSPEGQKVDHCARHGEKLLLFCQEDGKVICWLCERSQEHRGHHTFLTEEVAREYQVKLQAALEMLRQKQQEAEELEADIREEKASWKTQIQYDKTNVLADFEQLRDILDWEESNELQNLEKEEEDILKSLTNSETEMVQQTQSLRELISDLEHRLQGSVMELLQGVDGVIKRTENVTLKKPETFPKNQRRVFRAPDLKGMLEVFRELTDVRRYWVDVTVAPNNISCAVISEDKRQVSSPKPQIIYQAPGTRFPSLVNFNYCTGILGSQSITSGKHYWEVDVSKKTAWILGVCAGFQPDAMCNIEKNENYQPKYGYWVIGLEEGVKCSAFQDSSFHTPSVPFIVPLSVIICPDRVGVFLDYEACTVSFFNITNHGFLIYKFSHCSFSQPVFPYLNPRKCGVPMTLCSPSS [human TRIM5α, 330-340 = QAPGTRFPSLV]		0.00362 ± 0.0018
MASGILVNVKEEVTCPICLELLTQPLSLDCGHSFCQACLTANHKKSMLDKGESSCPVCRISYQPENIRPNRHVANIVEKLREVKLSPEGQKVDHCARHGEKLLLFCQEDGKVICWLCERSQEHRGHHTFLTEEVAREYQVKLQAALEMLRQKQQEAEELEADIREEKASWKTQIQYDKTNVLADFEQLRDILDWEESNELQNLEKEEEDILKSLTNSETEMVQQTQSLRELISDLEHRLQGSVMELLQGVDGVIKRTENVTLKKPETFPKNQRRVFRAPDLKGMLEVFRELTDVRRYWVDVTVAPNNISCAVISEDKRQVSSPKPQIIYGARGTLYTFPTLTNFNYCTGILGSQSITSGKHYWEVDVSKKTAWILGVCAGFQPDAMCNIEKNENYQPKYGYWVIGLEEGVKCSAFQDSSFHTPSVPFIVPLSVIICPDRVGVFLDYEACTVSFFNITNHGFLIYKFSHCSFSQPVFPYLNPRKCGVPMTLCSPSS [human TRIM5α, 330-340 = GARGTLYTFPTLT]		0.0612 ± 0.085
MASGILVNVKEEVTCPICLELLTQPLSLDCGHSFCQACLTANHKKSMLDKGESSCPVCRISYQPENIRPNRHVANIVEKLREVKLSPEGQKVDHCARHGEKLLLFCQEDGKVICWLCERSQEHRGHHTFLTEEVAREYQVKLQAALEMLRQKQQEAEELEADIREEKASWKTQIQYDKTNVLADFEQLRDILDWEESNELQNLEKEEEDILKSLTNSETEMVQQTQSLRELISDLEHRLQGSVMELLQGVDGVIKRTENVTLKKPETFPKNQRRVFRAPDLKGMLEVFRELTDVRRYWVDVTVAPNNISCAVISEDKRQVSSPKPQIIYGYGARGTRYQTFVNFNYCTGILGSQSITSGKHYWEVDVSKKTAWILGVCAGFQPDAMCNIEKNENYQPKYGYWVIGLEEGVKCSAFQDSSFHTPSVPFIVPLSVIICPDRVGVFLDYEACTVSFFNITNHGFLIYKFSHCSFSQPVFPYLNPRKCGVPMTLCSPSS [human TRIM5α, 2-codon duplication at 329]	0.98 ± 0.27	
